Here are results for 90 compounds from PubChem BioAssay AID463173 (ICCB-Longwood Screening Facility, Harvard Medical School, 2010).

The campaign covered roughly 52,000 compounds. About 1,700 (3.3%) were called active. Cut-off read from the data, not from the text of the source: active = survival mostly below about 52% (no sharp cut-off); inactive = mostly above about 56%. Some of the results follow.

The test system of this assay is Wild type. Briefly: growth inhibition of S. aureus wild type versus tarO mutant, primary screen, teichoic acid synthesis inhibitors, RN4220, OD600 (AID 463173). The following applies: S. aureus RN4220 wild type/DeltatarO growth, OD600, 18 h, hits give low values, screened at 18.75 µg/mL (by protocol).
In the case of `CCC(C(=O)NCc1ccc(OC)c(OC)c1)n1nc(C)c2c(C)n(-c3ccc(C)cc3)nc2c1=O` (stereo not given), the survival was inactive: 70%.

In the case of `CC(C)N1CC(C(=O)Nc2ccccc2)CC1=O` (stereo not given), the survival was inactive: 111%.

`Cc1ccc(C(=O)COC(=O)c2cccc(NC(=O)c3ccc(Cl)cc3Cl)c2)cc1`: the survival is inactive: 81%.

As to `CCOC(=O)c1c(NC(=O)c2cc3nc(-c4ccc(Br)cc4)cc(C(F)(F)F)n3n2)sc(C(C)=O)c1C`, the survival is inactive: 77%.

Turning to `Cc1ccc(NS(=O)(=O)c2cc(-c3cnc(C4CC4)o3)ccc2C)cc1Cl`, the survival was inactive: 152%.

In the case of `Cc1cc(NC(=O)c2ccc3c(c2)OCCO3)cc(-c2nc3ccccc3o2)c1O`, the survival was inactive: 86%.

With `COc1ccc(NC(=O)N2CCOc3ccc(Cl)cc32)cc1`, the survival was inactive: 82%.

Turning to `Nc1c(C(=O)Nc2ccccc2F)sc2nc3c(cc12)CCCCCC3`, the survival was inactive: 93%.

Take `O=C(/C=C/c1ccccc1)NC(O)C(=O)c1ccccc1` (stereo not given): the survival was inactive: 107%.

For `COc1ccc(Cc2nc3c4cnn(-c5ccccc5F)c4ncn3n2)cc1`, the survival is inactive: 88%.

As for `COc1ccc(Cl)cc1N(C)C(=O)c1cc2c(=O)oc3ccc(C)cc3c2s1`, the survival was inactive: 85%.

Turning to `CCc1ccc(NC(=O)CCNS(=O)(=O)c2ccc3c(c2)oc(=O)n3C)cc1`, the survival is inactive: 71%.

Regarding `CCOC(=O)c1ccccc1NC(=O)CN1CCCN(Cc2cccc(Cl)c2)S1(=O)=O`, the survival is inactive: 75%.

Consider `CCCCNC(=O)c1cc(-c2ccc(OC)cc2)nc2n[nH]c(-c3cccc([N+](=O)[O-])c3)c12`, for which the survival was inactive: 80%.

As for `CCc1ccccc1NC(=O)CN1CCCN(Cc2cc(C)ccc2C)S1(=O)=O`, the survival is inactive: 83%.

As for `CCN(CC)c1ccc(C(=O)NCc2ccc3c(c2)CCN3C(=O)c2ccc(F)cc2)cc1`, the survival is inactive: 56%.

Regarding `Cc1ccc(-n2nc(C)c3c(C(=O)NCCc4ccccc4)cc(C)nc32)cc1`, the survival was inactive: 79%.

With `Cc1ccc(CNC(=O)c2ccc3c(c2)nc2n3CCOC2)cc1`, the survival was inactive: 81%.

Turning to `Cc1ccc(C)c(-n2c(SCC(=O)NCC(C)C)nnc2-c2cccnc2)c1`, the survival is inactive: 104%.

Take `COc1ccccc1-c1cc(C(=O)Nc2cc(OC)c(OC)c(OC)c2)no1`: the survival was inactive: 78%.

For `COc1cc(Cc2ccc(N)c(OC)c2)ccc1N`, the survival was inactive: 104%.

Take `CCN(CC)CCCNC(=O)c1nn(C)c2c1CSc1ccccc1-2`: the survival is inactive: 91%.

Consider `COc1ccc(C(=O)NNc2ncnc3c2cnn3-c2cccc(Cl)c2)cc1OC`, for which the survival was inactive: 73%.

As to `COc1ccc(C(C)=O)cc1CSc1nc(NCCc2ccccc2)c2ccccc2n1`, the survival is inactive: 47%.

Consider `CCCS(=O)(=O)c1c(S(=O)(=O)CCC)c2cc(CC)ccn2c1C(=O)c1ccc(Cl)cc1`, for which the survival is inactive: 90%.

Regarding `Cc1cccc(N(CC(=O)NCCSCc2cccc(Cl)c2)S(=O)(=O)c2ccccc2)c1C`, the survival was inactive: 65%.

Turning to `COc1ccc(NC(=O)CCc2nc3c(C)nn(-c4ccc(C)cc4)c3n(C)c2=O)cc1`, the survival is inactive: 72%.

With `Cc1ccc(NC(=O)C2CCN(S(=O)(=O)c3c(C)noc3/C=C/c3cccs3)CC2)cc1F`, the survival is inactive: 82%.

With `COc1ccc(Cl)cc1CNCCSc1nnnn1-c1ccccc1`, the survival was inactive: 68%.

For the compound `COc1ccc(C2NC(=O)N(C)C3=C2C(=O)N(c2cccc(C(=O)O)c2)C3)cc1` (stereo not given), the survival was inactive: 89%.

As to `O=C(CN1C(=O)COc2ccccc21)N(Cc1ccccc1)Cc1ccccn1`, the survival is inactive: 112%.

On to `COc1ccc(N2C(=O)Cc3cc(OC)c(OC)cc3C2c2ccc(F)cc2)cc1` (stereo not given), for which the survival was inactive: 87%.

As to `CC(CCc1ccccc1)NC(=O)CSc1n[nH]c(-c2ccc(F)cc2)n1` (stereo not given), the survival is inactive: 134%.

Regarding `COc1ccc(CNC(=O)CN2C(=O)CCn3nc(-c4ccccc4)cc32)c(OC)c1`, the survival was inactive: 88%.

`COc1ccc(S(=O)(=O)Nc2cc3c(C(=O)OC(C)C)c(C)oc3c3ccccc23)cc1`: the survival is inactive: 63%.

Regarding `CCN(CC)C(=O)Cn1cnc2ccccc2c1=O`, the survival is inactive: 97%.

As to `COc1ccc(-c2ccc(CCC(=O)O)n2-c2ccccc2O)cc1`, the survival is inactive: 110%.

Consider `CC12CC(C(C#N)=C(N)N1)c1ccccc1O2` (stereo not given), for which the survival is inactive: 116%.

`Cc1cccc(Cn2cc(C(=O)Nc3cc(F)ccc3F)ccc2=O)c1`: the survival was inactive: 81%.

As to `Cn1c(Nc2ccc(Cl)cc2)cc(=O)n(C)c1=O`, the survival is inactive: 73%.

With `CC1=C(C(=O)Nc2ccc(C)cc2C)C(c2ccc(O)cc2)n2nc(SCC(=O)c3ccc(C)cc3)nc2N1` (stereo not given), the survival is inactive: 140%.

Take `COc1ccc(C(=O)c2sc3nc(-c4ccc(F)cc4)ccc3c2N)cc1`: the survival was inactive: 100%.

Take `COc1ccc(-c2nc(Cn3c(SCc4cccc(C(F)(F)F)c4)nc4cccnc43)c(C)o2)cc1OC`: the survival was inactive: 92%.

On to `Cc1oc2ncn(C)c(=O)c2c1C(=O)NCc1ccc(Cl)cc1`, for which the survival was inactive: 69%.

Regarding `Cc1cc(OCC(O)CN2CCN(c3cccc(Cl)c3)CC2)ccc1Cl` (stereo not given), the survival was active: 0%.

Regarding `COc1ccc(OC)c(CNC(=O)C2CCCCN2S(=O)(=O)c2ccc(F)cc2)c1` (stereo not given), the survival is inactive: 49%.

Regarding `COc1ccc(C(=O)Nc2ccc(S(=O)(=O)N(Cc3ccccc3)c3ccccc3)cc2)cc1`, the survival is inactive: 79%.

Consider `COc1ccc(-c2nn3c(=O)cc(CN4CCN(S(=O)(=O)c5ccc(C)cc5)CC4)nc3s2)cc1`, for which the survival was inactive: 67%.

For the compound `CC(O)CN(N)C1=NS(=O)(=O)c2ccccc21` (stereo not given), the survival was inactive: 98%.

Take `CC(C)CC(OC(=O)c1cccs1)C(=O)NCc1cccs1` (stereo not given): the survival was inactive: 96%.

As to `CCCc1nn2c(=O)cc(COC(=O)c3ccc(NC(=O)C4CCCCC4)cc3)nc2s1`, the survival is inactive: 59%.

As to `CC(C)Cc1nn2c(=O)cc(COC(=O)c3ccccc3NC(=O)C3CCCCC3)nc2s1`, the survival is inactive: 81%.

With `Cc1cc(S(=O)(=O)Nc2ccc(C(=O)O)cc2)c(C)c(S(=O)(=O)c2ccc(Cl)cc2)c1`, the survival is inactive: 78%.

As for `COc1cccc(NS(=O)(=O)c2ccc3c(c2)N(C)C(=O)CC(=O)N3C)c1`, the survival is inactive: 78%.

With `COc1ccc(C)cc1NC(=O)c1cn(C)c(=O)c2cc(OC)c(OC)cc12`, the survival was inactive: 76%.

`C=CCNC(=S)N1CCN(C(=S)NCC=C)CC1`: the survival is inactive: 100%.

Consider `Cc1ccc(S(=O)(=O)NCc2nc3cccnc3n2Cc2ccccc2Cl)c(C)c1`, for which the survival is inactive: 72%.

`CCc1nnc2c(Nc3ccc(N(CC)CC)cc3C)nc3ccccc3n12`: the survival is inactive: 120%.

`O=C(CSc1ncn[nH]1)N1CCCCC1`: the survival was inactive: 108%.

As for `COc1ccccc1NC(=O)CN1C(=O)c2ccccc2Sc2ccc(C(=O)N3CCCC3)cc21`, the survival was inactive: 57%.

As to `CCc1ccccc1NC(=O)N1CC(C)Sc2ccccc21` (stereo not given), the survival was inactive: 73%.

As for `O=C(Nc1ccc(Br)cc1F)N1CC=C(c2c[nH]c3ccccc23)CC1`, the survival is inactive: 105%.

In the case of `CC(=O)c1ccc(NC(=O)c2nc(-c3ccccc3)n(-c3ccccc3)n2)cc1`, the survival was inactive: 92%.

With `CC(=O)c1ccccc1OCC(O)Cn1c(CO)nc2ccccc21` (stereo not given), the survival was inactive: 88%.

On to `O=C(c1cc2ccccc2oc1=O)N1CCSC1c1ccco1` (stereo not given), for which the survival was inactive: 122%.

In the case of `COc1cccc(N2CCN(C(=O)CCCCCn3c(=O)[nH]c4ccccc4c3=O)CC2)c1`, the survival was inactive: 76%.

Take `CC1CCn2c(nc3cc(C(=O)NCc4ccc(OC(C)C)cc4)ccc32)C1` (stereo not given): the survival was inactive: 105%.

For the compound `Cc1cc(N2C(=O)CCC2=O)n(-c2ccccc2)n1`, the survival is inactive: 111%.

For `CC(C)c1ccc(NC(=O)CSc2nc3ccccc3nc2Cc2ccccc2)cc1`, the survival is inactive: 65%.

Turning to `COc1ccccc1CNC(=O)C1CCN(S(=O)(=O)c2ccc3c(c2)CCCN3C(C)=O)CC1`, the survival was inactive: 92%.

Turning to `CCC(C(=O)NC1CCC(C)CC1)n1nc(C)c2sc3ccccc3c2c1=O` (stereo not given), the survival is inactive: 88%.

`CCc1ccc(CNC(=O)c2cc3c(=O)n(Cc4cccs4)ccc3nc2C)cc1`: the survival was active: 0%.

As to `CCc1nc2nc(C)c(NS(=O)(=O)c3ccc(C)cc3)c(=O)n2[nH]1`, the survival is inactive: 84%.

On to `CCOc1ccccc1NC(=O)Cn1nnc(C(=O)NCc2ccc(F)cc2)c1N`, for which the survival is inactive: 101%.

For `CN(C)CCNC(=O)C(=O)NCC(c1cccnc1)N1CCN(c2ccc(F)cc2)CC1` (stereo not given), the survival is inactive: 87%.

For `COc1ccc(Cn2ccc3nc(C)c(C(=O)N4CCN(c5ccc(OC)cc5)CC4)cc3c2=O)cc1`, the survival was inactive: 130%.

Regarding `COc1cccc(/C=N/n2c(N)nc3ccccc32)c1OC`, the survival was inactive: 103%.

As for `Cc1ccc(S(=O)(=O)N(C)Cc2nc(-c3ccccc3)oc2C)cc1`, the survival was inactive: 74%.

Consider `Cc1cc(C)cc(NC(=O)Cc2c(C(=O)O)c(C)cn2C)c1`, for which the survival is inactive: 47%.

On to `O=C(Cn1cc(SCc2ccccc2F)c2ccccc21)N1CCCCC1`, for which the survival was inactive: 93%.

As to `O=C(NCc1ccco1)c1ccc2c(c1)N(Cc1c(F)cccc1Cl)C(=O)c1ccccc1S2`, the survival is inactive: 93%.

`COc1ccc(-c2c(C)nn3c(C(F)(F)F)cc(-c4ccccc4)nc23)cc1`: the survival was inactive: 60%.

For the compound `COc1ccc(OC)c(NC(=O)c2cc(C3CC3)nc3c2c(C)nn3-c2ccc(C)cc2)c1`, the survival was inactive: 75%.

Take `COc1ccc(C(=O)NCc2ccc3c(c2)CCN3C(=O)c2ccc(C)cc2)cc1`: the survival is inactive: 105%.

As for `Cc1cccc(-n2c(=O)c3ccccc3n(Cc3ccccc3)c2=O)c1`, the survival was inactive: 87%.

For the compound `Cc1ccc(-n2nc3ccc(NC(=O)COc4ccccc4)cc3n2)cc1Cl`, the survival is inactive: 73%.

`Cc1ccc(CNC(=O)C2CCN(Cc3nc(-c4cccc(Br)c4)oc3C)CC2)cc1`: the survival is inactive: 75%.

Regarding `CC(=O)c1cccc(NC(=O)C2CCN(S(=O)(=O)c3ccc4[nH]c(=O)ccc4c3)CC2)c1`, the survival was inactive: 75%.

`CCOc1ccc(-n2c(=O)c3c4c(sc3n(CC(=O)NC(C)CC)c2=O)CCCC4)cc1` (stereo not given): the survival is inactive: 89%.

With `CCOc1ccc(N(CC)C(=O)c2nn(-c3ccc(OC)cc3)c(=O)c3c2c2ccccc2n3C)cc1`, the survival was inactive: 92%.
